Experimental data from article PMC4336329 (PLoS ONE, 2015).
In all, about 310,000 compounds went through this assay and about 2,200 (0.71%) showed an effect of 50% or more. The effect is printed as a negative number. This is one part of the list.

Biological target: human ether-à-go-go-related gene (hERG) potassium channel (human, UniProt Q12809)
Assay: primary screen, population patch clamp on CHO cells stably expressing hERG

human ether-à-go-go-related gene (hERG) potassium channel, sequence (Q12809 whole entry, looked up): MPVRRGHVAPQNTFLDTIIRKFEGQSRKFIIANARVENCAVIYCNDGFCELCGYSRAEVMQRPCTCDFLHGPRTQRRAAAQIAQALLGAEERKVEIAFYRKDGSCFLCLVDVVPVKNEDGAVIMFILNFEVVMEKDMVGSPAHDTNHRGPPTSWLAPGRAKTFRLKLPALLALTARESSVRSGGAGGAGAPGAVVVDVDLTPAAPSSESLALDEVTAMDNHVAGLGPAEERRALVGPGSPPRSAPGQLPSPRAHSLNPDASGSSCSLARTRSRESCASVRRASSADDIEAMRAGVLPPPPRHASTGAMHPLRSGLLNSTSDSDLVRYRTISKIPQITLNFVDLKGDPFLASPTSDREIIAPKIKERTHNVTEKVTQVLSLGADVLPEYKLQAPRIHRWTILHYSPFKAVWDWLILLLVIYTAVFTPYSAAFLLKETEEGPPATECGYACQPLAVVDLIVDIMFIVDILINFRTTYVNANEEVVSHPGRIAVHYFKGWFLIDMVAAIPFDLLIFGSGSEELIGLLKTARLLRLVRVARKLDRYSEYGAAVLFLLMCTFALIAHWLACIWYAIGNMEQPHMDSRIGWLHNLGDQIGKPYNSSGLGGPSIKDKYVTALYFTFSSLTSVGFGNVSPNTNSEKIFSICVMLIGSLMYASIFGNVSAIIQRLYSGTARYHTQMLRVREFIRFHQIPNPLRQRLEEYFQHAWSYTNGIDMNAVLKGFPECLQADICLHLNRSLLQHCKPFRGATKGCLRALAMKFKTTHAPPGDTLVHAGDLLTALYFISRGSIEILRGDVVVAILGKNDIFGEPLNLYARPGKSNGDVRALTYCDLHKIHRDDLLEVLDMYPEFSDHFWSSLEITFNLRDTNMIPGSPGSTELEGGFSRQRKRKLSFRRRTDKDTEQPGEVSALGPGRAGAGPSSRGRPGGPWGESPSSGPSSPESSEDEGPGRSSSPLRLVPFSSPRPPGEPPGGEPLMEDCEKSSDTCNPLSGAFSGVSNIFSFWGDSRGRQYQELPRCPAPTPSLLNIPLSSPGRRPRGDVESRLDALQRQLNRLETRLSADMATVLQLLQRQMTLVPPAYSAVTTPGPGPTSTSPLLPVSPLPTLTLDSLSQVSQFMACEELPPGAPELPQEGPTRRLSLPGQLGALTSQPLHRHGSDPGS

| SMILES | hERG current change (%, negative = inhibition) at 1uM [%] |
| --- | --- |
| COc1ccc(CCC(C)N2CCC(CO)(Cc3ccccc3)CC2)cc1 (centres unmarked) | -31.6 |
| Cn1c(SCCOc2ccccc2F)nc2ccccc2c1=O | 9.95 |
| CCC(=O)Nc1c2c(nc3c1CCC3)CCCC2 | 4.39 |
| CCOc1ccc(C(=O)c2cccs2)cc1 | 7.12 |
| CCOC(=O)c1c(NC(=O)CN(CC)CC)sc2c1CCC2 | 1.63 |
| CC1CC(=O)c2cnc(NCC3CCCO3)nc2C1 (centres unmarked) | 7.28 |
| Cc1ccccc1NC(=O)COC(=O)Cc1cccc(C(F)(F)F)c1 | 14.9 |
| N#Cc1nc(COc2ccc(Br)cc2)oc1N1CCCCCC1 | 0.165 |
| CCOC(=O)COc1cc([N+](=O)[O-])cc2cccnc12 | 12.3 |
| Cc1ccc2nc(-c3ccc(NS(=O)(=O)c4ccccc4)cc3)sc2c1 | 8.44 |
| COc1ccc(OC)c(CCNC(=O)CCc2nnc3ccc(N4CCCCC4)nn23)c1 | 6.08 |
| Cc1c(C(=O)Nc2ccncc2)oc2ccccc12 | -17.3 |
| CSCCC(NC(=O)c1ccccc1Br)C(=O)N1CCC(C)CC1 (centres unmarked) | 16 |
| CCC(=O)NN1CCc2cc3ccc(C)cc3nc21 | 14.2 |
| COc1ccccc1-c1cc(C(F)(F)F)c(C#N)c(=O)[nH]1 | 7.15 |
| COC(=O)[C@@H]1C[C@@]2(O)[C@H](O)[C@H](O)[C@H](O)C[C@H]2N1Cc1cc(F)ccc1F | 11 |
| O=C(CSc1nc2ncccc2[nH]1)Nc1ccc2c(c1)OCCO2 | 4.4 |
| CCOc1ccccc1NC(=O)CCS(=O)(=O)c1ccc2c(c1)CCN2C(C)=O | 17.8 |
| COc1cc2[nH]c3c(N4CCN(c5ccccn5)CC4)ncnc3c2cc1OC | 13.1 |
| COc1cc(CNCCCN2CCOCC2)ccc1OCC(=O)Nc1cccc(C(F)(F)F)c1.Cl | -23.9 |
| CCOc1ccc(N(C)C(=O)CCc2nnc3ccc(N4CCOCC4)nn23)cc1 | 14.1 |
| Cc1nc(C(=O)NC2CCCCC2)sc1C1(C)CC(c2cccnc2)=NO1 (centres unmarked) | 8.91 |
| COc1ccc(CCN(C)C(=O)CCNS(=O)(=O)c2ccccc2C(F)(F)F)cc1OC | 10.6 |
| CCOCCc1nn2c(=O)cc(CSCC(=O)Nc3ccccc3)nc2s1 | 14.9 |

| SMILES | hERG current change (%, negative = inhibition) at 1uM [%] |
| --- | --- |
| COC(=O)c1ccccc1NC(=O)Cn1c(SC)c(F)cnc1=O | 7 |
| COc1ccc(-c2cc(C(F)(F)F)nc(SCC(=O)Nc3ccc4c(c3)OCO4)n2)cc1OC | 2.19 |
| CCNC(=S)N/N=C/c1cccc(C)c1 | 8.19 |
| CC(C)CCn1c(O)c(N=NC(=O)c2ccco2)c2ccccc21 | 11.4 |
| Cc1nn(C)c(NC(=O)c2ccc(Cl)cc2)c1Cl | 10.2 |
| Cc1ccc(-n2nc3c(c2NC(=O)C2CC2)CS(=O)(=O)C3)cc1C | 4.41 |
| Cc1ccc2nc3ccc(N4CCCCCCC4)nn3c(=O)c2c1 | -9.45 |
| COc1cc2ccc(=O)oc2c(O)c1OCC=C(C)C | 9.16 |
| CCc1cc2cc(C(=O)Nc3ccc(F)cc3)sc2s1 | -4.58 |
| COC(=O)C1=C(c2cc3ccccc3s2)C[C@@H]2CC[C@H]1N2C(=O)NC1CCCCC1 | -3.87 |
| CC(C)CNC(=O)C(=O)NCCC1CCCCN1S(=O)(=O)c1cccs1 (centres unmarked) | 6.11 |
| O=C(Cn1cncn1)N/N=C/c1ccccc1O | 6.95 |
| CCCOc1c(Br)cc(C2C3=C(CCCC3=O)N(CC)C3=C2C(=O)CCC3)cc1OC | 9.24 |
| COc1ccc(CN(C(=O)c2ccccc2Br)C2CCS(=O)(=O)C2)cc1 (centres unmarked) | 7.85 |
| O=C1OC(/C=C/c2ccccc2)=NC/1=C\c1cccnc1 | 16.5 |
| COc1cc2c(cc1OC)C(=O)CCS2 | 4.62 |
| CNCc1ccccc1Sc1ccc(O)c(O)c1.O=C([O-])/C=C\C(=O)[O-] | 1.86 |
| CCCCn1c(N2CCCC2)nc2c1c(=O)[nH]c(=O)n2C | 7.8 |
| COc1cc(/C=N/NC(=O)c2nnn(-c3nonc3N)c2-c2cccs2)ccc1O | -4.65 |
| O=C(NNS(=O)(=O)c1ccc(F)cc1)c1cccc(O)c1 | 16 |
| CCNC(=O)COc1ccc(-c2ccccc2)cc1 | 10.5 |
| CCCC(=O)Nc1cccc(Oc2ccc3c(c2)C(=O)NC3=O)c1 | 9.76 |
| Cc1ccsc1C1C2=C(CC(C)(C)CC2=O)Nc2ncnn21 (centres unmarked) | 7.12 |
